Whole data set: some 33,000 sequences, median “E-score (-0.5 to 0.5)” near -0.011, cut for the highest 2% near 0.28. Some of the results follow.
biological target: T1, Gcr1 (UniProt P07261); assay: PBM E-score (8-mer binding enrichment) (E-score (-0.5 to 0.5)); higher = stronger / more preferred TF binding; most listed sequences are background and not binding sites; conditions: protein concentration: 100 nM; construct: GST-full length
T1 sequence: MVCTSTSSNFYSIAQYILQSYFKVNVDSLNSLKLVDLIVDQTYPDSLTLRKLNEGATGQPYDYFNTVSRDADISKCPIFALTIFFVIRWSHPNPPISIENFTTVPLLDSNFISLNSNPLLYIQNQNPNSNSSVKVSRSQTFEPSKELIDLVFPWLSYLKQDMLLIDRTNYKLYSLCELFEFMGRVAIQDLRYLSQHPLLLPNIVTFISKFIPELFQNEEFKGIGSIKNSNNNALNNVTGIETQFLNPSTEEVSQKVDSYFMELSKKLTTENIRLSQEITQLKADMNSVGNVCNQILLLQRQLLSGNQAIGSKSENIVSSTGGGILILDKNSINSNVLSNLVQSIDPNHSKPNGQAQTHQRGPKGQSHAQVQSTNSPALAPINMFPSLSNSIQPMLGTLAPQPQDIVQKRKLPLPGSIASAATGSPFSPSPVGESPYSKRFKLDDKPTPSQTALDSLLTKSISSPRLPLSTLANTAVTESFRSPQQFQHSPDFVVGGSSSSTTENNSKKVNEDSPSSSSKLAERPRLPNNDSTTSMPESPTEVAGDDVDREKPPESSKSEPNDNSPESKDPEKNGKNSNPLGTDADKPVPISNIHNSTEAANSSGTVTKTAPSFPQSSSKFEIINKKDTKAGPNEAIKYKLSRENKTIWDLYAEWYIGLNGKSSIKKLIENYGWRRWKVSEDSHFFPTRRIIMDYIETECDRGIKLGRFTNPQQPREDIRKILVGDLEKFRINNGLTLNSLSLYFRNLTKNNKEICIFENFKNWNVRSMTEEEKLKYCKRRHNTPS
Procedure, shortened: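 PURExpress in vitro transcription/translation supplied GST-tagged yeast transcription factors, either full-length or DNA-binding domain. Applied at about 100-200 nM to universal all-10-mer Agilent arrays double-stranded by primer extension, the bound protein was detected with fluorescent anti-GST. E-scores, modified Wilcoxon-Mann-Whitney statistics, were given by the Universal PBM Analysis Suite to ungapped eight-base words pooled with their reverse complements after masliner normalisation.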

Sequence | PBM E-score
GGTGTATA | -0.28
GATGCCAC | 0.342
GACTTTCC | -0.177
AGACGATG | 0.189
CATGTAGA | 0.0481
ATCTGCAC | 0.0229
GCTGGATA | 0.115
CCGAAGCA | -0.082
CAACATTG | -0.0426
AGCGCGGG | 0.119
ATCCGACA | -0.019
CACCACAC | -0.0549
CGTGACAG | 0.0136
GACTACTA | -0.0363
GAGACATC | 0.0483
CATGCGGG | -0.0543
ATGGCTAC | 0.124
CAAGCGTC | 0.0379
AGGCGGGA | 0.0309
CAGGTACG | -0.123
CGCAATCA | -0.0907
AAGAAAAT | 0.304
CTATAAGC | -0.0389
CAGTGAAC | -0.0275

Sequence | PBM E-score
GTCCAATA | 0.205
GAAGGGCC | -0.248
GAGACGCA | 0.113
GCTGCGTA | 0.286
CAGGTGTA | -0.0818
GCGCGGAA | 0.014
GACGTAAA | -0.0595
GCCTGCGC | -0.156
ACACCGGA | 0.0649
GATAAGAC | 0.0907
GTAACCAA | 0.00968
ACTTTCAA | 0.139
ACGCGGCT | 0.129
AGCTACAT | -0.0377
CGAAAATC | -0.0439
TATCGTCA | 0.0934
ACTTCGTG | 0.0522
CCATTCTA | 0.118
AGTACCTG | 0.108
CTTCGGGA | 0.0898
CCGCGTGA | 0.201
TCAAGCAA | -0.0274
AGCCGACG | -0.0123
CATTGCCA | -0.169

Sequence | PBM E-score
CCACTCCA | 0.137
CGAGATCA | 0.0628
GATAAGTA | 0.103
CCCGTCCA | -0.0559
AGACCTCG | -0.0204
ACCTGTAC | 0.0266
ATTCCAGG | 0.097
AACCCCAA | 0.00228
AAGCGATT | 0.0501
CCATAGTC | -0.0493
GAATGGTC | -0.197
ACAATGGT | -0.271
CCAGGGTC | -0.00981
AGGCTGTC | -0.11
TACGGCAA | 0.0989
CCTGACAA | -0.0463
CGAACGAC | -0.134
GATCCGCA | 0.0939
CCCGCATC | 0.198
TCTCGCAA | -0.00232
TCTGATCA | -0.0577
GAGGGCTA | -0.259
GAGCATCA | -0.0695
AGTAAGCA | -0.21

Sequence | PBM E-score
CAACCTTC | -0.0142
GCTTTTCC | -0.238
CTATGCGC | -0.0813
AGCTCCTA | -0.0934
GGTGCTGA | 0.335
AAAAATAG | 0.175
AATGGTAC | 0.138
ACATCCAC | 0.133
AGCCGTCC | -0.162
AAAGTACA | 0.0394
ACTTTGAT | -0.123
GAGTGTTA | -0.102
CGACGCGA | -0.0131
GGCATCCC | 0.4
GGCTCAGA | -0.0689
ACCGGATG | 0.349
AGGATGAT | 0.105
GGCACTAA | 0.158
ACGGTGCT | 0.178
CGGCAAGA | -0.131
CCGGGTCG | -0.0758
GTCGTAGA | -0.0298

From the supplement of paper PMC3334620
